# The other results are listed elsewhere or left out.
# B1: DBA (Dolichos biflorus) (protein)
# chain: ANIQSFSFKNFNSPSFILQGDATVSSGKLQLTKVKENGFPLRFPSGRAFYSSPIQIYDKFTGAVASWATSFTVKISAPSKASFADGIAFALVPVGSEPRRNGGYLGVFDSDVYNNSAQTVAVEFDTLSNSGWDPSMKHIGIDVNSIKSIATVSWDLANGENAEILITYNAATSLLVVSLVHPSRRTSYILSERVDITNELPEYVGVGFSATTGLSEGYIETHDVLSWSFASRLPDDSTAEPLDLARYLVRNVL
# Tests used:
# Experiment in all cases: glycan array binding signal (z-score within array); higher = stronger binding
# Conditions in all cases: glycan notation: IUPAC condensed, linker removed
# [1] = target: Fuc(a1-2)[GalNAc(b1-3)]Gal
# Method in brief: (§1)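 The Consortium for Functional Glycomics database supplied 3228 glycan arrays, of which those lacking an available protein sequence were dropped. The binding signal, a within-array Z-score, was averaged across arrays of the same protein sequence and across linkers. Negative scores can be read as non-binding.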
# Fuc(a1-3)GlcNAc = target: Fuc(a1-3)GlcNAc
# Method in brief: as §1
# [2] = target: Fuc(a1-3)[Gal(b1-4)]Glc6S
# Method in brief: as §1
# [3] = target: Fuc(a1-3)[Gal(b1-4)]GlcNAc
# Method in brief: as §1
# [4] = target: Fuc(a1-3)[Gal(b1-4)]GlcNAc(b1-2)Man
# Method in brief: as §1
# [5] = target: Fuc(a1-3)[Gal(b1-4)]GlcNAc(b1-2)Man(a1-3)[Fuc(a1-3)[Gal(b1-4)]GlcNAc(b1-2)Man(a1-6)]Man(b1-4)GlcNAc(b1-4)GlcNAc
# Method in brief: as §1
# [6] = target: Fuc(a1-3)[Gal(b1-4)]GlcNAc(b1-2)Man(a1-3)[Fuc(a1-3)[Gal(b1-4)]GlcNAc(b1-2)Man(a1-6)]Man(b1-4)GlcNAc(b1-4)[Fuc(a1-6)]GlcNAc
# Method in brief: as §1
# [7] = target: Fuc(a1-3)[Gal(b1-4)]GlcNAc(b1-3)Gal(b1-3)[Fuc(a1-4)]GlcNAc
# Method in brief: as §1
# [8] = target: Fuc(a1-3)[Gal(b1-4)]GlcNAc(b1-3)Gal(b1-4)[Fuc(a1-3)]GlcNAc
# Method in brief: as §1
# [9] = target: Fuc(a1-3)[Gal(b1-4)]GlcNAc(b1-3)Gal(b1-4)[Fuc(a1-3)]GlcNAc(b1-3)Gal(b1-4)[Fuc(a1-3)]GlcNAc
# Method in brief: as §1
# [10] = target: Fuc(a1-3)[Gal(b1-4)]GlcNAc(b1-3)GalNAc
# Method in brief: as §1
# [11] = target: Fuc(a1-3)[Gal(b1-4)]GlcNAc(b1-4)Gal(b1-4)[Fuc(a1-3)]GlcNAc
# Method in brief: as §1
# [12] = target: Fuc(a1-3)[Gal(b1-4)]GlcNAc(b1-4)Gal(b1-4)[Fuc(a1-3)]GlcNAc(b1-4)Gal(b1-4)[Fuc(a1-3)]GlcNAc
# Method in brief: as §1
# [13] = target: Fuc(a1-3)[Gal(b1-4)]GlcNAc(b1-6)GalNAc
# Method in brief: as §1
# [14] = target: Fuc(a1-3)[Gal(b1-4)]GlcNAc(b1-6)[Gal(b1-3)GlcNAc(b1-3)]Gal(b1-4)Glc
# Method in brief: as §1
# [15] = target: Fuc(a1-3)[Gal(b1-4)]GlcNAc6S
# Method in brief: as §1
# [16] = target: Fuc(a1-3)[Gal3S(b1-4)]Glc
# Method in brief: as §1
# [17] = target: Fuc(a1-3)[Gal3S(b1-4)]GlcNAc
# Method in brief: as §1
# [18] = target: Fuc(a1-3)[Gal3S(b1-4)]GlcNAc6S
# Method in brief: as §1
# [19] = target: Fuc(a1-3)[GalNAc(b1-4)]GlcNAc
# Method in brief: as §1
# [20] = target: Fuc(a1-3)[GalNAc(b1-4)]GlcNAc6S
# Method in brief: as §1
# Fuc(a1-4)GlcNAc = target: Fuc(a1-4)GlcNAc
# Method in brief: as §1
# Fuc(b1-3)GlcNAc = target: Fuc(b1-3)GlcNAc
# Method in brief: as §1
# Gal(a1-2)Gal = target: Gal(a1-2)Gal
# Method in brief: as §1
# Gal(a1-3)Gal = target: Gal(a1-3)Gal
# Method in brief: as §1
# Gal(a1-3)Gal(b1-3)GlcNAc = target: Gal(a1-3)Gal(b1-3)GlcNAc
# Method in brief: as §1
# [21] = target: Gal(a1-3)Gal(b1-3)GlcNAc(b1-2)Man
# Method in brief: as §1
# [22] = target: Gal(a1-3)Gal(b1-3)GlcNAc(b1-2)Man(a1-3)[Gal(a1-3)Gal(b1-3)GlcNAc(b1-2)Man(a1-6)]Man(b1-4)GlcNAc(b1-4)GlcNAc
# Method in brief: as §1
# [23] = target: Gal(a1-3)Gal(b1-3)GlcNAc(b1-3)GalNAc
# Method in brief: as §1
# [24] = target: Gal(a1-3)Gal(b1-3)GlcNAc(b1-6)GalNAc
# Method in brief: as §1
# [25] = target: Gal(a1-3)Gal(b1-3)[Fuc(a1-4)]GlcNAc(b1-2)Man(a1-3)[Gal(a1-3)Gal(b1-3)[Fuc(a1-4)]GlcNAc(b1-2)Man(a1-6)]Man(b1-4)GlcNAc(b1-4)GlcNAc
# Method in brief: as §1
# Gal(a1-3)Gal(b1-4)Glc = target: Gal(a1-3)Gal(b1-4)Glc
# Method in brief: as §1
# Gal(a1-3)Gal(b1-4)GlcNAc = target: Gal(a1-3)Gal(b1-4)GlcNAc
# Method in brief: as §1
# [26] = target: Gal(a1-3)Gal(b1-4)GlcNAc(b1-2)Man
# Method in brief: as §1
# [27] = target: Gal(a1-3)Gal(b1-4)GlcNAc(b1-2)Man(a1-3)[Gal(a1-3)Gal(b1-4)GlcNAc(b1-2)Man(a1-6)]Man(b1-4)GlcNAc(b1-4)GlcNAc
# Method in brief: as §1
# [28] = target: Gal(a1-3)Gal(b1-4)GlcNAc(b1-3)GalNAc
# Method in brief: as §1
# [29] = target: Gal(a1-3)Gal(b1-4)GlcNAc(b1-6)GalNAc
# Method in brief: as §1
binder,measurement,setting,value
B1,glycan array binding signal (z-score),[1],-0.149
same,glycan array binding signal (z-score),Fuc(a1-3)GlcNAc,-0.09
same,glycan array binding signal (z-score),[2],-0.037
same,glycan array binding signal (z-score),[3],-0.11
same,glycan array binding signal (z-score),[4],-0.116
same,glycan array binding signal (z-score),[5],-0.081
same,glycan array binding signal (z-score),[6],0.13
same,glycan array binding signal (z-score),[7],-0.071
same,glycan array binding signal (z-score),[8],-0.061
same,glycan array binding signal (z-score),[9],0.005
same,glycan array binding signal (z-score),[10],-0.043
same,glycan array binding signal (z-score),[11],-0.19
same,glycan array binding signal (z-score),[12],-0.193
same,glycan array binding signal (z-score),[13],-0.011
same,glycan array binding signal (z-score),[14],-0.079
same,glycan array binding signal (z-score),[15],-0.1
same,glycan array binding signal (z-score),[16],-0.104
same,glycan array binding signal (z-score),[17],-0.127
same,glycan array binding signal (z-score),[18],-0.015
same,glycan array binding signal (z-score),[19],-0.114
same,glycan array binding signal (z-score),[20],-0.109
same,glycan array binding signal (z-score),Fuc(a1-4)GlcNAc,-0.115
same,glycan array binding signal (z-score),Fuc(b1-3)GlcNAc,-0.112
same,glycan array binding signal (z-score),Gal(a1-2)Gal,-0.133
same,glycan array binding signal (z-score),Gal(a1-3)Gal,-0.158
same,glycan array binding signal (z-score),Gal(a1-3)Gal(b1-3)GlcNAc,-0.124
same,glycan array binding signal (z-score),[21],-0.087
same,glycan array binding signal (z-score),[22],0.127
same,glycan array binding signal (z-score),[23],-0.089
same,glycan array binding signal (z-score),[24],0.047
same,glycan array binding signal (z-score),[25],0.092
same,glycan array binding signal (z-score),Gal(a1-3)Gal(b1-4)Glc,-0.119
same,glycan array binding signal (z-score),Gal(a1-3)Gal(b1-4)GlcNAc,-0.113
same,glycan array binding signal (z-score),[26],-0.132
same,glycan array binding signal (z-score),[27],0.082
same,glycan array binding signal (z-score),[28],-0.096
same,glycan array binding signal (z-score),[29],-0.118
